From the supplement of paper PMC11417369
The other results are listed elsewhere or left out.

test system: PF3D7_0420300 AP2 domain 1 (GST-tagged); experiment: gcPBM binding intensity (ln(normalized median fluorescence intensity)); higher = stronger DNA binding
Summary of the method: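 An Agilent 4 × 180k array carrying primer-extended double-stranded 36-bp intergenic genomic probes and negative controls received GST-tagged P. falciparum DNA-binding domains expressed in E. coli, about 25 μg on average, for 1 h. The binding buffer contained 1× PBS, 1% milk, 0.2 mg/ml BSA, 0.5% salmon testes DNA and 0.03% Triton X-100. Binding intensity is the top Masliner-normalised natural-log median intensity across replicate spots of either probe orientation, read after Alexa488 anti-GST antibody staining and a 488 nm scan.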

Sequence	gcPBM binding intensity (ln)
CACAAAAAAAATTATACACACACACCCATATATATA [CACACA_site8255]	9.99
AAAGGATATATCCAGAGTACATATTCTGTGTAATAC [XGTACX_site1547]	9.37
TGTCTTATTTATATTACACACTATATGAAAAAATAT [CACACA_site6807]	9.24
ATATATATATATATATGTACATAATTAATAGCATAT [XGTACX_site1428]	9.38
GAAAAAGATGCGCATACACACAGATGAATAACAAAA [CACACA_site1628]	9.79
ATCATATTTATGTTGGTGCATTATACATAAAGTTTA [GTGCAC_site9574]	9.2
AAAATAAGAAAACAAATGCACACCATTTATATAGAT [CACACA_site1055]	9.72
TATATAATAAGAAAATATGTGCGTAGTTCAGCAAAA [XGTACX_negctrl_site304]	9.46
GAAAAATATATTCTGGTGCATGAATAAAATCATAAA	9.05
AATTGGATAAACCAATTGGATTATAATACGATATAT [CACACA_negctrl_site275]	9.11
AAAAAAAAAAAAAAAAGTACTCTATAAGTAACATTT [XGTACX_site6973]	8.98
ATTTTTTTGTTATTGTTGAAAAGATGGTTCTTTTTT [CACACA_negctrl_site1346]	9.32
AATTTCTTATTTTGTACACACAATAAATATTCACAT [CACACA_site1612]	9.72
TAGTAGTTATCATTAACATGCAATAATATTATTTAA [TGCATGCA_site178]	9.04
ATGAACATATTTTTTTGTACTTATGAAAATATGTTA [XGTACX_site5996]	9.02
AAGTTAGGATAGATCCAATAATTTTTAGTTTCTCTT [GTGCAC_negctrl_site272]	9.04
AAAATAAATAAATACACACACACGAATATTTATATA [CACACA_site6892]	10.1
AAAAAAAAAAAAAAAAGTACACATCATTTTATGAAA [XGTACX_site1402]	8.94
ATTATAAAAATATCGTGTACATATTTTTTAAAATAA [XGTACX_site5072]	8.91
ATTATTTCAATTTTTTTTGTTTTTAAAAAAAAAAAT [CACACA_negctrl_site1387]	8.75
GAAAACAAAATGGTAACACACAAATGTAAATAGTAT [CACACA_site2113]	9.76
GATATATTTTATATATGTACATACAAGGGTAAATAT [XGTACX_site1202]	9.4

Sequence	gcPBM binding intensity (ln)
AAAATAAACTATAGTACACACTTATTATTATGAAAT [CACACA_site5488]	9.45
TCAATTAGACGAAAATGTACATATGTATATATTTTT [XGTACX_site5027]	9.19
AAAATATGTAGCTACACACACATAAACAAAATAACA [CACACA_site1007]	9.99
ATTTTATAAAGGAAGTGTACTAATAAATTCAAATTA [XGTACX_site3922]	8.98
AAGAAAAAATATACTTCACACATTTAATATATAATT [CACACA_site4919]	9.26
AAAAAAAAAAAAAAATGTACAAATATATACATATAT [XGTACX_site935]	9.2
TCGATGTTGGTAGGATGTACGGTACCGGTAGTATTT [XGTACX_site4214]	9.44
AAAAAAGAATTGTGCACACACAAAAAATGTTCATAA [CACACA_site1103]	9.51
TAATGTTACACAAACTTTTCATTCTTTTTAATAAAT [TGCATGCA_negctrl_site331]	9.1
ATATAATTATAAAATAAACACACATATATATTTATA [CACACA_site8039]	9.48
TTATTTATTTATAATTGTACATTGCAAATGAATTTA [XGTACX_site4083]	8.76
ATATATATATATATATGTACATAGAGAAGTATCTTT [XGTACX_site4737]	9.2
AACATTTTAAATTATACACACATTTTGAATATATAT [CACACA_site3470]	9.54
TATACACCCAGACACACACACACACCCAAAAAAAAA [CACACA_site497]	10
TGTTGTTGTAATTATTGTACGTTATGCGATTATTAT [XGTACX_site7005]	9.48
ATATATATATATATGTGTACATATAAGATAGAAGAA [XGTACX_site3198]	9.68
TATTTATTTATAAATGCATGTCGCTCTTTTTATTAC [TGCATGCA_site626]	9.32
AACTATAAAAGTTTTACACACTGTTTTTAAATAATG [CACACA_site7686]	9.31
TTATGCATAAAAGGTGGTACTCCGTATATACATTCT [XGTACX_site4354]	9.24
ATTATTATAGATATAACACACATAATTACATACTTA [CACACA_site6837]	9.47
AAAAGTAAAAAAAGCACACACGAAAAAAAATAAAAA [CACACA_site5264]	9.91
TCCATAAATAATTGTAGTACACATACTATGTGACAT [XGTACX_site7268]	9.28
